# Measurements published in PubChem BioAssay AID686970 (National Center for Advancing Translational Sciences (NCATS), 2013).
# Among all 360,000 compounds or so, about 6,000 (1.7%) were called active. This list was built around the results that the source calls inconclusive (neither active nor inactive); the mix of calls is not that of the screen. Calls come from the whole dose curve; as a rule, active = well fitted cell-killing curve with a large enough effect; inconclusive = small, poorly fitted or top-dose-only effect, or effect the other way; inactive = flat fitted curve, though single readings scatter. Potencies of inconclusive entries are left out as doubtful fits.
# Experiment: qHTS for induction of synthetic lethality in tumor cells producing 2HG: qHTS for the HT-1080-NT fibrosarcoma cell line;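 note: NT is the 2HG producing partner of a matched IDH1 knockdown line; nearly all actives have a fitted effect of over 55% in size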;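 for activity, negative = less viability: 0% = DMSO-treated cells and -100% = media-only wells without cells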
# Conditions: HT-1080-NT fibrosarcoma viability, CellTiter-Glo ATP luminescence, 48 h; activity, negative = less viability: at 46.1 µM (top of the series) unless noted
# Method in brief: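 Luminescent CellTiter-Glo readout after 48 hours of compound exposure at 37 degrees C defined viability of HT-1080-NT cells. Activity was normalized to DMSO wells and cell-free media wells; concentration-response curves were fitted and assigned curve classes.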
# Potency is the fitted concentration of half-maximal effect; tags give direction and shape of the fitted curve.
Structure (SMILES),"activity, negative = less viability",Potency
COC(=O)c1cc(Cl)c(NC(=O)c2ccco2)cc1OC,inconclusive: 30.9%,–
Cc1ccccc1-c1cc2nc(NCCN3CCCC3)n(C)c(=O)c2s1,–,"inconclusive [cytotoxic, partial curve]"
COc1ccc(NC(=O)c2noc(C(C)C)c2[N+](=O)[O-])cc1,–,active: 23.1 µM
CN(C)CCCN1c2ccccc2CCc2ccc(Cl)cc21,–,"inconclusive [cytotoxic, single point]"
Cc1ccc(S(C)(=O)=NC(=O)NC(=O)c2c(F)cccc2Cl)cc1 (stereo unspecified),inconclusive: 31.6%,–
CCOC(=O)[C@]12CCCC=C1N(CCC1=CCCCC1)C(=O)[C@H](CC(=O)N1CCC(c3ccccc3)CC1)C2,–,"inconclusive [cytotoxic, single point]"
CC(=O)O[C@H]1[C@@H](O)[C@H](O)[C@H](Oc2c(O)c(C)c3c4c2[C@@H](C)CC[C@@H]4[C@@H](C)C[C@H]3C=C(C)C)O[C@H]1C,–,"inconclusive [cytotoxic, single point]"
COC(=O)c1cccc(NC(=O)CC2C(=O)NCCN2C(=O)c2ccc(F)cc2F)c1 (stereo unspecified),inactive: 24.1%,–
Cn1c(SCC#N)nnc1-c1cccnc1,–,"inconclusive [rising, partial curve, poor fit]"
O=C(c1ccccc1)c1ccc2nc(-c3ccc(NC(=O)c4ccccc4F)cc3)[nH]c2c1,–,"inconclusive [cytotoxic, single point]"
Cn1c(C(=O)Nc2ccc3c(c2)OCO3)cc2c(=O)n(C)c3ccccc3c21,inactive: 19.2%,–
O=C(Nc1ccc(Cl)c(S(=O)(=O)N2CCOCC2)c1)c1ccc2c(c1)OCCO2,inactive: -20.6%,–
NC(=O)c1nnsc1Sc1c(C(N)=O)nnn1-c1cccc(N)c1,inactive: -0.138%,–
COc1ccc(C2=NN(C(=O)c3ccco3)C(c3cccs3)C2)cc1OC (stereo unspecified),inactive: -23.2%,–
O=C(O)CSc1cc(NS(=O)(=O)c2ccc(Br)cc2)c2ccccc2c1O,–,active: 20.6 µM
CCCCCCSc1nsc(NC(=O)CC(C)C)n1,–,"inconclusive [cytotoxic, partial curve]"
CC(Cc1ccccc1)=NNc1ccc([N+](=O)[O-])cc1[N+](=O)[O-],–,"inconclusive [cytotoxic, partial curve]"
CN(C)CCCN(C(=O)c1cc(Cl)sc1Cl)c1nc2cc3c(cc2s1)OCO3,–,"inconclusive [cytotoxic, partial curve]"
COc1ccc2nc(NC(=O)c3cccc(-c4cc5ccccc5oc4=O)c3)sc2c1,–,active: 14.6 µM
O=C1C=CC(O)C2(CO)OC12 (stereo unspecified),–,"inconclusive [cytotoxic, single point]"
Cc1nc(-c2ccccn2)nc(N2CCOCC2)c1Cl,inconclusive: 31%,–
CC(=O)c1ccc(N2CCN(CC(O)COC(c3ccccc3)c3ccccc3C)CC2)cc1 (stereo unspecified),–,"inconclusive [cytotoxic, single point]"
CCCCCCOC(=O)c1ccc(N)cc1,–,"inconclusive [cytotoxic, full curve]"
Cc1ccc(OCCC(=O)OCC(=O)Nc2ccc3c(c2)OCCO3)cc1,inactive: 5.86%,–

Structure (SMILES),"activity, negative = less viability",Potency
Cc1cc(C)c(C#N)c(SCc2ccccc2C(=O)O)n1,inconclusive: 35.3%,–
CCCOc1ccc2oc(=O)c3c(c2c1)CCCN3C(=O)CN1CCc2ccccc2C1,–,"inconclusive [cytotoxic, single point]"
CC(=O)c1cccc(-c2ccnc3c2CC(C(=O)Nc2ccc(C(C)C)cc2)O3)c1 (stereo unspecified),–,"inconclusive [cytotoxic, single point]"
COc1ccc(-c2sc3cc(OC)c(OC)cc3c2C#CCO)cc1,inactive: -28.4%,–
C=C(C)CNC(=S)N/N=C(\C)c1cccc(NC(C)=O)c1,–,"inconclusive [cytotoxic, single point]"
OC(c1cccc(CN2CCCCC2)c1)c1ncc(-c2cccc(C(F)(F)F)c2)[nH]1 (stereo unspecified),–,active: 20.6 µM
COc1cc(O)c(C(CCN2CCCCC2)c2cc(OC)c(OC)c(OC)c2)c(OC)c1 (stereo unspecified),inactive: 0.338%,–
Cc1cc(Br)c(S(=O)(=O)NCc2ccncc2)cc1C,–,"inconclusive [cytotoxic, partial curve, poor fit]"
CSc1ccc(/C=C(\NC(=O)c2ccccc2)C(=O)NCCN2CCOCC2)cc1,inactive: 10.1%,–
CC(=O)c1cccc(NC(=O)Nc2ccc3c(c2)N(C)C(=O)CS3)c1,–,"inconclusive [cytotoxic, single point]"
Cc1ccc(-c2nc(CCN3C(=O)c4ccccc4C3=O)cs2)cc1,–,"inconclusive [cytotoxic, partial curve]"
COc1cccc(NC(=O)[C@@H]2CCCN2C(=O)[C@@H]2Cc3ccccc3CN2C(=O)OC(C)(C)C)c1,–,"inconclusive [cytotoxic, single point]"
COc1ccc(S(=O)(=O)N(C)c2ccc(C(=O)NCC3CCCO3)cc2)cc1OC (stereo unspecified),inactive: -0.0728%,–
CCOCC(=O)Nc1cc(S(=O)(=O)N2CCOCC2)ccc1N1CCCCC1,inactive: 11.8%,–
O=C(Nc1ccccc1)Nc1ccc(C(=O)N2CCCC2)cc1,–,"inconclusive [cytotoxic, partial curve, poor fit]"
COc1cccc(CN2CCC(C(=O)Nc3ccc(-c4cccc(C)c4)cc3)CC2)c1O,–,"inconclusive [cytotoxic, single point]"
O=C(c1ccccc1)c1nn(-c2cccc(Cl)c2)ccc1=O,inactive: 4.08%,–
CN1CCN(c2ccc([N+](=O)[O-])c(-n3nc(-c4ccccc4)c4ccccc4c3=O)c2)CC1,–,"inconclusive [cytotoxic, single point]"
Cn1nc(C(F)(F)F)c(/C=N/OC(=O)c2ccccc2Cl)c1SCc1ccccc1Cl,–,"inconclusive [cytotoxic, single point]"
CN(C)c1ccc(-c2ccnc3c2CC(C)(C(=O)NCc2ccco2)O3)cc1 (stereo unspecified),–,"inconclusive [cytotoxic, full curve, poor fit]"
Cc1ccc(/C=C/C(=O)c2ccccc2O)cc1,–,"inconclusive [cytotoxic, single point]"
COCC1CCCN(Cc2cn(Cc3ccccc3)nc2-c2cc3ccccc3o2)C1 (stereo unspecified),–,"inconclusive [cytotoxic, single point]"
COc1cccc(O)c1CN1CCC(n2nccc2NC(=O)c2ccc3c(c2)OCO3)CC1,inactive: -0.841%,–
COc1ccc(NC(=O)/C(=C\c2cccs2)NC(=O)c2ccco2)cc1,–,"inconclusive [rising, single point]"

Structure (SMILES),"activity, negative = less viability",Potency
CCCCNC(=O)c1onc(CSc2cccc(C)c2)c1C(=O)O,inactive: -10.3%,–
O=C(NCCCN1CCCC1=O)c1cc(-c2cccnc2)nc2ccc(Cl)cc12,–,"inconclusive [rising, partial curve]"
COc1cccc(C2CNC3(CCCC(C)C3)c3[nH]c4ccccc4c32)c1OC (stereo unspecified),–,"inconclusive [cytotoxic, single point]"
CCOc1ccc(-c2nnc(N3CCCCC3)c3ccccc23)cc1,–,"inconclusive [cytotoxic, single point]"
C=C(C)C(=O)NNc1ccccc1,–,active: 7.31 µM
Cc1ccc(C)c(NC(=S)NNC(=O)c2ccco2)c1,–,"inconclusive [cytotoxic, single point]"
CN(/N=C/c1cc(Cl)cc(Cl)c1O)C(=S)NC(C)(C)C,–,"inconclusive [cytotoxic, single point]"
CC(C)c1ccccc1NC(=O)Cn1c(/C=C/c2ccccc2)nc2ccccc21,–,"inconclusive [cytotoxic, single point]"
COc1ccc(/C=N/NC(=O)COc2ccccc2-c2ccccc2)cc1,–,active: 2.31 µM
CC1(C)NC(=O)C(CCc2ccccc2)NC1=O (stereo unspecified),–,"inconclusive [rising, single point]"
O=C(CN1C(=O)c2ccccc2C1=O)OCC(=O)N1CCc2ccccc2C1,inactive: -1.57%,–
Cc1sc2nc(C3CC3)nc(N3CCN(C(=O)c4ccc(F)cc4)CC3)c2c1C,–,"inconclusive [cytotoxic, single point]"
O=Cc1ccc(Sc2nnc(-c3ccccc3)o2)c([N+](=O)[O-])c1,–,"inconclusive [cytotoxic, single point]"
COc1ccc(NC(=O)C2(C)Cc3c(-c4cccc(NC(C)=O)c4)ccnc3O2)cc1 (stereo unspecified),–,"inconclusive [cytotoxic, full curve]"
CC(=O)Nc1ccc(CN2C(=O)C(C)ON=C2c2ccccc2-c2ccco2)cc1 (stereo unspecified),–,"inconclusive [rising, single point]"
COc1ccc(C(=O)N/N=C/c2ccccc2OC(=O)c2ccccc2)cc1,–,active: 4.61 µM
COc1cc(Nc2ncnc(N)n2)cc(OC)c1OC,inactive: 8.9%,–
C/C(CC(=O)NCc1ccco1)=N\NC(=O)COc1ccc(Cl)cc1Cl,–,active: 20.6 µM
Cc1ccc(C)c(NC(=O)c2ccc3c(=O)n4c(nc3c2)CCC4)c1,inactive: 7.66%,–
Cc1cccc(C)c1NC(=O)C(c1ccncc1)n1c(=O)c(-c2cc3ccccc3[nH]2)nc2ccccc21 (stereo unspecified),–,active: 20.6 µM
CCOC(=O)c1c(CSC(=N)N)n(C)c2cc(Br)c(OC(C)=O)cc12,–,"inconclusive [cytotoxic, single point]"
CC(=O)/C=C/n1c(=S)oc2ccccc21,–,active: 5.17 µM
CCN(CC(=O)NCc1ccc(Cl)cc1)C(=O)/C=C/c1ccc(C#N)cc1,–,"inconclusive [cytotoxic, partial curve]"
